# B1: Cep3Δ (domain or fragment)
# chain: not shown
# modifications: selenomethionine-substituted protein (used to solve the crystal structure)
# Molecular target: the molecule itself
# Assay: SEC
protein,measurement,value
B1,stoichiometry N,2

# Source: publication PMC2246632 (EMBO Reports, 2007)
